Test results: ChEMBL document CHEMBL1201862, “PubChem BioAssay data set” (2004)

system: NCI-H322M; assay: growth of human tumour cells (NCI), 48 h

Compound	GI50
OCC1O[C@H](O[C@@H]2CCCN3CC(O)C(O)[C@@H]23)C(O)C(O)C1O (some centres not stated)	inactive: > 100 µM
CC(=O)OCC(OC(C)=O)C(OC(C)=O)C(OC(C)=O)C(=O)CNn1c(-c2ccccc2)nc2ccc(Br)cc2c1=O (configuration not stated)	inactive: > 100 µM
CC(NC(=O)CNC(=O)OC(C)(C)C)C(=O)NC(Cc1ccccc1)C(=O)OCc1ccccc1 (stereo not drawn) (Boc-Gly-Ala-Phe-OBn; configuration not given here)	inactive: > 100 µM
Cc1nc2ccccc2n1COC(Cn1ccnc1)c1ccc(Cl)cc1Cl (configuration not stated)	inactive: > 100 µM
CC1=C2CC[C@@]3(C)C(=CCC3O)C2(C)CCC1=O (some centres not stated)	inactive: > 100 µM
CSC1=Nc2ccccc2-c2nc(-c3ccccc3)cc(-c3ccccc3)c2C1	inactive: 24.7 µM
N#CCCN(CCC#N)c1ccc(/C=C2\N=C(CN3C(=O)c4ccccc4C3=O)OC2=O)cc1	inactive: > 100 µM
Oc1ccc(Cl)cc1/C=N/c1cnc2ccccc2c1	inactive: 26.6 µM
CCc1ccccc1NC(=O)/C=C/c1ccccc1	inactive: > 100 µM
CC(C)=CCC[C@@H](C)C1=C(O)C(=O)C(C)=C(N[C@H](C)c2ccccc2)C1=O	inactive: 5.09 µM
C[n+]1c2ccccc2c(CNCC(=O)O)c2ccccc21	inactive: 11 µM
CC(C)(C)OCC1NC(=O)[C@@H]2Cc3c([nH]c4ccccc34)C(C3CCCCC3)N2C1=O (some centres not stated)	inactive: 28.8 µM
O=C(/C=C/CC(O)(c1ccccc1)c1ccccc1)Nc1ccccc1Cl	inactive: > 100 µM
O=C1NC(O)CCN1C1CC(O)C(CO)O1 (configuration not stated)	inactive: > 100 µM
COc1cc2c[n+](C)c3c4cc(OC)c(OC(C)C)cc4ccc3c2cc1OC	inactive: > 100 µM
CS(=O)(=O)Nc1ccc2c(c1)oc(=O)c1ccccc12	inactive: > 100 µM
C=C1C(=O)O[C@H]2[C@@H]3O[C@@](C)(CC/C=C(\C)CCC[C@@H]2C)[C@H](O)C[C@@H]13	inactive: 17.5 µM
O=C(CNc1ccccc1Cl)Nn1c(-c2ccccc2)nc2ccccc2c1=O	inactive: 34.2 µM
Cc1c(C)c2ccc(O)cc2[nH]c1=O	inactive: > 100 µM
CCOC(=O)C(C)(C)Oc1ccc2c(-c3ccccc3)cc(=O)oc2c1	inactive: > 100 µM
CC(=O)O[C@@H]1C2=C(C3=C([O-])C4=CC=CC(=O)C4C(=O)C3=C2[N+]#N)[C@H](OC(C)=O)[C@@H](OC(C)=O)[C@]1(C)O (some centres not stated)	active: 0.615 µM

Compound	GI50
Cc1cc(O)nc(NN2C(Cl)C(=O)C2c2ccc(Cl)cc2)n1 (configuration not stated)	inactive: 19.7 µM
CCCCCCCCCCCCCCCCC(=O)NCC(=O)NCC(=O)NC(Cc1ccccc1)C(=O)Oc1ccc([N+](=O)[O-])cc1 (configuration not stated)	inactive: 40.9 µM
Cc1cc(C)nc(NS(=O)(=O)c2ccc(NN=c3c4ccccc4n(C)c4ccccc34)cc2)n1	inactive: 36.9 µM
C=C(C)CCC(=O)[C@](C)(O)[C@H]1[C@H](O)C[C@@]2(C)[C@@H]3CCc4c(cc(OC5OC(CO)C(O)C(O)C5O)c(O)c4C)C3(C)C(=O)C[C@]12C (some centres not stated)	inactive: > 100 µM
O=C(O)c1ccccc1CC1Cc2ccccc2C1	inactive: > 100 µM
COC(=O)[C@@H]1C[C@]2(CC=C(C)C)c3ccccc3N(S(=O)(=O)c3ccccc3)[C@@H]2N1C(=O)OC	inactive: 35.7 µM
O=C(n1c(=O)n(-c2ccc([N+](=O)[O-])cc2)c(=O)n1C(=O)C(Cl)(Cl)Cl)C(Cl)(Cl)Cl	inactive: > 100 µM
CCOC(=O)C#Cc1cccc(C#CC(=O)OCC)c1	inactive: 13.1 µM
O=C1NC(NNc2ccccc2)=N/C1=C\c1ccco1	inactive: 44.3 µM
CCOC(=O)c1sc2[n+](c1C)C(=O)/C(=C/c1ccccc1Cl)S2	inactive: 2.86 µM
CC1(C)CC(=O)c2c(nc(SSc3nc4c(c(-c5ccccc5)c3C#N)C(=O)CC(C)(C)C4)c(C#N)c2-c2ccccc2)C1	inactive: > 10 µM
CCCCCCCC(=O)OCC(C[As](=O)(O)O)OC(=O)CCCCCCC (configuration not stated)	inactive: 15.8 µM
O=C(c1ccccc1)c1ccc(N2C(=O)/C(=C/c3ccccc3S)N=C2c2ccccc2)c(N2C(=O)/C(=C/c3ccccc3S)N=C2c2ccccc2)c1	inactive: > 100 µM
COc1ccc2nc3cccc([N+](=O)[O-])c3c(NCCN(C)C)c2c1	active: 0.164 µM
O=C(CCCCCCCCC(=O)NN1C(=O)/C(=C\c2ccc(O)c(O)c2)SC1c1ccc(Cl)cc1)NN1C(=O)/C(=C\c2ccc(O)c(O)c2)SC1c1ccc(Cl)cc1 (configuration not stated)	inactive: 10.5 µM
C[C@@H]([C@H]1CC[C@@]2(C)[C@@H]3CC[C@@H]4C(=CC3=CC[C@]12C)CC[C@H](N(C)C)C4(C)C)N(C)C [BUXAMINE A]	inactive: > 100 µM
c1cc(-c2csc(-c3ccsc3)c2)cs1	inactive: > 100 µM
O=C(Nc1cc(Cl)c(Cl)cc1Cl)C(=O)C1C(=O)NC(=S)NC1=O	inactive: > 100 µM
C[C@]12C=CC(=O)C=C1CC[C@H]1[C@@H]3C[C@@H](O)[C@](O)(C(=O)CO)[C@@]3(C)C[C@H](O)[C@@]12F [TRIAMCINOLONE]	inactive: > 100 µM
CC(=O)N(CC(=O)C(=O)NNc1ccoc1)c1ccc(Cl)cc1	inactive: > 100 µM
O=C1c2ccc3c4ccccc4n(-c4ccccc4)c3c2C(=O)N1c1ccc(Cl)cc1	inactive: > 100 µM

Compound	GI50
NC(=O)CNC(=O)C1CC(O)CN1C(=O)C1CCCN1C(=O)OCc1ccccc1 (stereo not drawn) (Cbz-Pro-[Hyp]-Gly-NH2; configuration not given here)	inactive: > 100 µM
CCOC(=O)C12CCC(c3c(C)cccc3C)(O1)C(C(=O)OC)=C2C(=O)OC (configuration not stated)	inactive: 4.12 µM
O=c1c2cc([N+](=O)[O-])ccc2n2n1Cc1ccccc1CC2	inactive: > 100 µM
O=C1OC(O)C(Oc2ccc(Cl)cc2)=C1Cl (configuration not stated)	inactive: > 100 µM
CCCOCN1COCN/C1=N\C#N	inactive: > 100 µM
COc1ccc(/C=N/c2c(O)ccc3ccccc23)cc1OC	inactive: > 100 µM
COc1ccc(-c2cc(C(=O)Nc3cc(C(F)(F)F)cc(C(F)(F)F)c3)c3ccccc3n2)cc1	inactive: 4.01 µM
Cc1ccc(C(=O)N2CCCCC2)cc1/N=N/N(C)C	inactive: > 100 µM
COc1ccc(NC(=S)N/N=C\c2ccc(NC(C)=O)cc2)cc1	inactive: > 100 µM
C[N+](C)([O-])C12CC3CC(CC(C3)C1)C2	inactive: 29 µM
Cc1ccc(N/C(Sc2ccccc2)=C(/C(Cl)=C(Cl)Cl)[N+](=O)[O-])c(C)c1	inactive: 29.9 µM
CN(Cc1c2ccccc2cc2ccccc12)S(=O)(=O)c1ccc(-c2c3nc(c(-c4ccc(S(=O)(=O)N(C)Cc5c6ccccc6cc6ccccc56)cc4)c4ccc([nH]4)c(-c4ccc(S(=O)(=O)N(C)Cc5c6ccccc6cc6ccccc56)cc4)c4nc(c(-c5ccc(S(=O)(=O)N(C)Cc6c7ccccc7cc7ccccc67)cc5)c5ccc2[nH]5)C=C4)C=C3)cc1	inactive: > 100 µM
CC(C)(C)OC(=O)N(CCCN)CCCCN(CCCN)C(=O)OC(C)(C)C	inactive: > 100 µM
COc1ccccc1C12OC(=O)C1(C)Oc1ccccc1C2=O (configuration not stated)	inactive: > 100 µM
CN(C)CCCNC(=O)CCNC(=O)c1cc(NC(=O)c2cc(NC(=O)c3cc(NC(=O)c4nccn4C)cn3C)cn2C)cn1C	inactive: > 100 µM
CC1C2C=CC1C(c1c3ccc(=O)c(O)c-3oc3c(O)c(O)ccc13)C2C(=O)O (configuration not stated)	inactive: 39.8 µM
Cn1cc(C=C(C#N)C#N)c(=O)n(C)c1=O	inactive: > 100 µM
CCOc1cc(NC(C)=O)ccc1C(=O)NN1C(=O)C(Oc2ccccc2)C1c1ccc(O)c(OC)c1 (configuration not stated)	inactive: > 100 µM
CSC(C1c2ccccc2N(C)C2=NC(=O)N(C)C(=O)C21Cl)S(=O)(=O)c1ccc(C)cc1 (configuration not stated)	inactive: > 100 µM
Cc1cccc(Cl)c1NC(=O)/C=C/c1ccccc1	inactive: 21.9 µM
CC(C)OC(=O)c1ccc(NCC2=CC(=O)C=CC2=O)cc1	inactive: 73.3 µM

Compound	GI50
COc1cc(OC)cc(Oc2nc3cc(F)c(F)cc3nc2-c2ccccc2)c1	inactive: > 100 µM
COC(=O)C(Cc1nc2ccccc2nc1C)/C(=N\NC(N)=O)C(=O)Nc1cccc([N+](=O)[O-])c1 (configuration not stated)	inactive: > 100 µM
CCCCCCCCCCCCCCCC(=O)OCC(C[As](=O)(O)O)OC(=O)CCCCCCCCCCCCCCC (configuration not stated)	inactive: > 100 µM
O=C(c1ccc(Cl)cc1)N(C(=S)N1CCN(c2ccccn2)CC1)C1CCCCC1	inactive: 45.3 µM
CCCC[S+]([O-])CCC(N)P(=O)(O)O (configuration not stated)	inactive: > 100 µM
COc1ccc(C2SCC(=O)N2NC(=O)C(C)Oc2ccc(Cl)cc2Cl)cc1 (configuration not stated)	inactive: 31 µM
C=CCC1=C2CCCCC2CCC1=O (configuration not stated)	inactive: > 100 µM
N#CC1(C#N)C=CC(=C2OCC3CCCN23)C=C1 (configuration not stated)	inactive: > 100 µM
Cc1cc(C)c(S(=O)(=O)N(CCCCCCN)OCCCON(CCCCCCN)S(=O)(=O)c2c(C)cc(C)cc2C)c(C)c1	inactive: 1.66 µM
COc1ccc(-c2cc(-c3ccc(Nc4ccnc5cc(C(F)(F)F)ccc45)cc3)[nH]c(=O)c2C#N)c2ccccc12	inactive: > 80.7 µM
COC(=O)CCC(NC(=O)C(C)NC(=O)COC1C(O)C(OC(=O)CCNc2c3ccccc3nc3cccc([N+](=O)[O-])c23)OC(OCc2ccccc2)C1NC(C)=O)C(N)=O (configuration not stated)	inactive: > 10 µM
COc1cccc(/C(C=O)=C(\Cl)c2ccc(OC)c(OC)c2)c1	inactive: 15.3 µM
CCC(=O)COc1ccc(NC(NC(=O)C(C(F)(F)F)C(F)(F)F)(C(F)(F)F)C(F)(F)F)cc1	inactive: > 100 µM
O=C(CCn1[nH]c(=O)c(Cl)c(Cl)c1=O)NOCCCc1ccccc1	inactive: > 100 µM
CC(=O)OCC1OC(n2c(-c3ccc(N)cc3)cc(-c3ccco3)c(C#N)c2=O)C(OC(C)=O)C(OC(C)=O)C1OC(C)=O (configuration not stated)	inactive: > 50 µM
O=[N+]([O-])c1c(Br)cc(Br)c2c1Nc1c(ccc(Cl)c1Cl)S2	inactive: 13.1 µM
c1csc(-c2cscc2-c2ccsc2)c1	inactive: > 85.3 µM
O=[N+]([O-])c1ccc2[nH]c(=S)[nH]c(=S)c2c1	inactive: > 100 µM
COC(=O)c1ccc(C(=O)NC(Cc2ccc(Oc3cc(CC(NC(=O)c4ccccc4C(=O)OC)C(=O)OC)ccc3OC)cc2)C(=O)OC)cc1 (configuration not stated)	inactive: > 100 µM

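Test compounds were applied to cells in 96-well plates for 48 hours at 5 doses. Abbreviation: GI50, concentration required for 50% inhibition of growth.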 Activity calls are given as the source filed them. No stated cut-off is given here; in the data, active = GI50 up to about 1.1 µM and inactive = higher. Square brackets hold non-standard residues; d marks the D form. Peptide text beside a SMILES is read from it. * marks the point of attachment. Hyp = O=C(O)[CH]1C[CH](O)CN1; Cbz = O=C(OCc1ccccc1)*; Boc = CC(C)(C)OC(=O)*; OBn = c1ccc(CO*)cc1
